In publication PMC4336329 (PLoS ONE, 2015):
Hit rate of the full screen: of about 310,000 compounds, about 14,000 (4.5%) showed an effect of 50% or more. Effects have a minus sign here. Some of the results follow.

Molecular target: human ether-à-go-go-related gene (hERG) potassium channel (human, UniProt Q12809)
Assay: primary screen, population patch clamp on CHO cells stably expressing hERG
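Further: peak tail current of the secondary pulse compared with the same well before compound.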

human ether-à-go-go-related gene (hERG) potassium channel, sequence (Q12809 whole entry, looked up): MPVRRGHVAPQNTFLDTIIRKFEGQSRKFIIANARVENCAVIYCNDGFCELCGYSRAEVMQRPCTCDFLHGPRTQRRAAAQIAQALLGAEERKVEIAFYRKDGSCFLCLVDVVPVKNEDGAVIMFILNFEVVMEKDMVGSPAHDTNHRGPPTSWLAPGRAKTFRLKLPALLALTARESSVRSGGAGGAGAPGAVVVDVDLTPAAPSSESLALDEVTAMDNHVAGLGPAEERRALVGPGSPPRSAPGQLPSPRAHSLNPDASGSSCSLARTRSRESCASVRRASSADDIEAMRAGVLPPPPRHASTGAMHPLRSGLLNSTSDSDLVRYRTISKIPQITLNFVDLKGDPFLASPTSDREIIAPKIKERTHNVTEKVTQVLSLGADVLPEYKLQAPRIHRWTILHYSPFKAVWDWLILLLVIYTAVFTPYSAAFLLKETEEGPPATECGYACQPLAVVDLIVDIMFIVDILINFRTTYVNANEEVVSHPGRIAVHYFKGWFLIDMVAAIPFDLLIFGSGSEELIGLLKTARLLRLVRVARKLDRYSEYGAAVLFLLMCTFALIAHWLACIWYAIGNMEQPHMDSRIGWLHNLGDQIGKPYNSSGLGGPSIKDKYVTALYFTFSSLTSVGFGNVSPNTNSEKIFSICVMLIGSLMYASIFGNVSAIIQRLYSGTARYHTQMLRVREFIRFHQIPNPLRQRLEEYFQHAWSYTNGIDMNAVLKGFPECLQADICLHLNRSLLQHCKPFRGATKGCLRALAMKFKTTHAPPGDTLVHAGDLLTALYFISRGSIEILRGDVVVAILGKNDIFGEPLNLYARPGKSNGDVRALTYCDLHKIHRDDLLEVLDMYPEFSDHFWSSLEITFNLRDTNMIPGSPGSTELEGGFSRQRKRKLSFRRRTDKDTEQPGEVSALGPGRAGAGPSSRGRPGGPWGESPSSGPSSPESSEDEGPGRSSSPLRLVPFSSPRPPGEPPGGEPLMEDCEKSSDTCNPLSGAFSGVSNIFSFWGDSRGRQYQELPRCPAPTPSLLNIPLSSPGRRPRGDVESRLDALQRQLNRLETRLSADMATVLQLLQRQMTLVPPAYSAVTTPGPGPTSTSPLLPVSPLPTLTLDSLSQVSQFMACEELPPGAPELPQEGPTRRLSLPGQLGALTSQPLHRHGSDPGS

| Compound | hERG current change (%, negative = inhibition) at 10uM [%] |
| --- | --- |
| Cc1cccc(N2CCN(C(=O)C(Cc3ccccc3)NC(N)=O)CC2)c1C (stereo not drawn) | 0.0525 |
| Cc1cc(=O)[nH]c(SCC(=O)NC(C)C2CC3CCC2C3)c1C#N (stereo not drawn) | 8.14 |
| COc1ccc(-c2nn(-c3ccccc3)cc2/C=N/NC(=S)NC(C)C)cc1OC | 0.00898 |
| COc1cc2[nH]c(=S)n(C3CC3)c(=O)c2cc1OC | 24.8 |
| O=C(Nc1nnc(-c2ccc(Cl)cc2)o1)c1nc2ccccc2s1 | 6.88 |
| O=[N+]([O-])c1ccc(OCc2n[nH]c(=S)n2-c2ccccc2)cc1 | -8.54 |
| NC(=O)c1ccc(NC(=O)COC(=O)c2ccc3c(c2)OCO3)cc1 | -1.17 |
| O=C(COC(=O)CNC(=O)C1CCCCC1)Nc1ccc(Br)cc1Br | -10.4 |
| Cc1ccc(OCCSc2nnc(C)c(=O)n2N)cc1 | 4.24 |
| CC(=O)N1C(=O)c2cccc3cccc(c23)C(=O)N1C(C)=O | 3.49 |
| CCOC(=O)c1c(N)nn(C(C)=O)c1-c1ccccc1 | 5.32 |
| Cn1cnc2c1c(=O)n(Cc1ccccc1)c(=O)n2C | -2.12 |
| CCOc1ccc(CCNC(=O)c2cc(-c3ccccc3)c(N3CCOCC3)s2)cc1OCC | 8.52 |
| Cc1ccc(-c2cc(-c3ccc(F)cc3)n[nH]2)c(O)c1 | 8.43 |
| Cc1ccc(S(=O)(=O)N(C)C)cc1NC(=O)C(C)OC(=O)c1ccc2ccccc2n1 (stereo not drawn) | -26.8 |
| O=C(c1ccc(C(F)(F)F)n(Cc2ccc(Cl)cc2)c1=O)N1CCOCC1 | -49.5 |
| O=C(Cn1ncc2c1-c1ccccc1OC2)Nc1cccc(Cl)c1 | 3.76 |
| Fc1ccccc1/C=C1\CCCC2=C1NC(=S)NC2c1ccccc1F (stereo not drawn) | 5.88 |
| COc1ccccc1NC(=O)CN1C(=O)NC(C)(C)C1=O | 16.8 |
| O=C(O[C@H]1[C@H](Oc2ccccc2COC(=O)C2(O)C=CCCC2=O)O[C@H](CO)[C@@H](O)[C@@H]1O)c1ccccc1 (stereo partly drawn) | 24.8 |
| Cc1ccccc1NC(=O)C1CC(=O)N(c2ccccc2F)C1 (stereo not drawn) | -16 |

| Compound | hERG current change (%, negative = inhibition) at 10uM [%] |
| --- | --- |
| COc1cc(OC)c(-c2nc3ccccc3s2)cc1OC | -4.74 |
| Cc1cccc(C(=O)OCC(=O)N(C)C(c2ccccc2)c2ccccc2)c1[N+](=O)[O-] | -5.25 |
| COc1ccc(CC(=O)OCC(=O)Nc2c(C)n(C)n(-c3ccccc3)c2=O)cc1OC | -7.56 |
| CCOC(=O)N1CCN(Cc2nc3cc(NC(=O)C(C)C)ccc3n2C)CC1 | 12.3 |
| CCc1nn(CC(=O)N2CCN(c3cc(C)ccc3C)CC2)c(=O)c2cc3occc3n12 | 13 |
| CCOc1ccc2cc(C3CC(c4ccco4)=NN3S(C)(=O)=O)c(=O)[nH]c2c1 (stereo not drawn) | 1.94 |
| COc1cc(CNCc2ccc(C)cc2)cc(OC)c1OC.O=C(O)C(=O)O | -3.47 |
| CC(=O)O[C@H]1CC(=O)OC(C)(C)C2CC(=O)[C@]3(C)C(CC[C@@](C)([C@@H](O[C@@H]4O[C@H](CO)[C@@H](O)[C@H](O)[C@H]4O)c4ccoc4)[C@@]34O[C@@H]4C(=O)O)[C@]21C (stereo partly drawn) | -7.03 |
| CC(=O)N(CN1C(=O)C2CC=CCC2C1=O)c1cccc(Cl)c1 (stereo not drawn) | -5.31 |
| CCOc1ccc(S(=O)(=O)N2CCC(C(=O)Nc3cc(S(C)(=O)=O)ccc3Cl)CC2)cc1 | -28.5 |
| CN(CC(=O)Nc1ccc(Cl)cc1)C(=O)COc1ncnc2ccccc12 | -8.52 |
| COc1ccc(NS(=O)(=O)c2ccc(-c3cnc(C4CC4)o3)cc2)cc1OC | 14.6 |
| N#Cc1c(NC(=O)CCCl)sc2c1CCCCC2 | 2.76 |
| Clc1ccc(-c2cc(COc3ccc4ccccc4c3)no2)cc1 | 16 |
| CC(=O)Nc1ccc(S(=O)(=O)NCc2nc(-c3ccccc3Cl)no2)cc1 | 13.1 |
| C=CCN1CCN(C(=O)c2oc3ccccc3c2C)CC1 | -0.434 |
| Cc1ccc(OCC(=O)N(Cc2ccco2)c2c(N)n(Cc3ccccc3)c(=O)[nH]c2=O)cc1C | 6.85 |
| CC(NC(=O)c1cc2c(cc1Cl)N1CCCCCC1=NS2(=O)=O)c1ccc(S(N)(=O)=O)cc1 (stereo not drawn) | 10.9 |
| CCCCn1c(O)c(C(CC)=NCCN2CCCCC2)c(=O)[nH]c1=O | -53.6 |
| CCOc1ccccc1C(=O)NCc1ccco1 | -3.25 |
| CNC(=O)c1c(NC(=O)c2ccc(S(=O)(=O)N3CCCc4ccccc43)cc2)sc2c1CCN(C)C2 | 4.53 |

| Compound | hERG current change (%, negative = inhibition) at 10uM [%] |
| --- | --- |
| O=C(NCc1ccccn1)c1coc(=O)c(Br)c1 | 14.3 |
| CC1CCN(S(=O)(=O)c2cccc(C(=O)N(Cc3ccccc3)c3ccccn3)c2)CC1 | -17.4 |
| COc1ccc2c(c1)sc(=N)n2C | -22.4 |
| Cc1ccc(Cl)c(OCC(=O)NN2CCN(C)CC2)c1 | -9.03 |
| CC(C)CCn1c(=O)c(C(=O)NCc2ccc3c(c2)OCO3)c(O)c2ccccc21 | 17.4 |
| Cc1ccc(C)n1NC(=O)c1ccc(Cl)cc1Cl | -3.53 |
| O=C(COC(=O)c1cc(=O)[nH]c2ccccc12)NC(=O)c1ccccc1 | 4.64 |
| COc1cc2c(cc1OC)C1(CCCC1)CNC2c1ccc([N+](=O)[O-])cc1.Cl (stereo not drawn) | -50 |
| CCc1cccc(C)c1NC(=O)C1C2CCC(O2)C1C(=O)O (stereo not drawn) | 18.8 |
| COC(=O)c1ccc(C(=O)OC)c(NC(=O)COC(=O)C2CCC(C(C)(C)C)CC2)c1 (stereo not drawn) | 6.23 |
| COc1cccc(/C=N/NC(=O)c2oc3nc(-c4ccccc4)cc(-c4ccco4)c3c2N)c1 | 3.07 |
| CN1CCN(c2ccc(Cl)cc2NC(=O)c2cccc(S(=O)(=O)N(C)C)c2)CC1 | -36.9 |
| COC(=O)C(N)Cc1ccc(O)cc1.Cl (stereo not drawn) | 15.9 |
| N#C/C(=C\c1ccc(F)c(Cl)c1)S(=O)(=O)c1ccccn1 | -6.64 |
| N#Cc1cnn2c(C(F)(F)F)cc(-c3ccccc3)nc12 | 15.6 |
| CCOC(=O)CSc1nnc(Cn2c(=O)sc3ccccc32)n1-c1ccccc1C | -7.64 |
| CC(C)NC(=O)c1onc(CSc2cccc(Cl)c2)c1C(=O)O | 3.74 |
| Nc1nc2ccccc2n1/N=C/c1ccc(-c2ccccc2)o1 | -11.8 |
| CC(=O)c1cccc(NC(=O)c2ccccc2N(Cc2ccccc2)S(C)(=O)=O)c1 | 13.5 |
| CC(C)c1ccc(S(=O)(=O)N2CCN(CC(O)CN3CCOCC3)CC2)cc1 (stereo not drawn) | -22.8 |
| CC(C)CCNc1ncnc2c1nnn2Cc1ccccc1Cl | -2.06 |

| Compound | hERG current change (%, negative = inhibition) at 10uM [%] |
| --- | --- |
| CN(C)c1ccnc(C(=O)O)c1 | 29.1 |
| Cc1cc(NC(=O)c2noc3c2CCc2ccccc2-3)no1 | 11 |
| O=C(O)CCC(=O)Nc1ccc(Cc2ccc(NC(=O)CCC(=O)O)c(O)c2)cc1O | -0.248 |
| Cc1ccc(S(=O)(=O)O)cc1.NC1CCN(c2nc3c(cc2F)c(=O)c(C(=O)O)cn3-c2ccc(F)cc2F)C1 (stereo not drawn) | 18.5 |
| CCOC(=O)N1CCN(C(=O)c2cc(-c3ccc(F)cc3)[nH]c2C)CC1 | -72.3 |
| CN(CCCNC(=O)CCc1cn(C)c2ccccc12)C1CCCCC1 | -14.3 |
| COC(=O)c1ccc(NC(=O)CN2CCC(NC(=O)c3ccco3)CC2)cc1 | -14.8 |
| COc1ccc(OC)c(CN2CCN(C(=O)c3cccc(S(=O)(=O)Nc4ccc(C)cc4)c3)CC2)c1 | -34.6 |
| COc1cc(NC(=O)c2cccc(C)c2)c(Cl)cc1[N+](=O)[O-] | 8.78 |
| CCCCN(CC)CCCNC(=O)CS(=O)(=O)Cc1nc(-c2cccc(OC)c2)oc1C | -28.4 |
| Cl.O=C(/C=C/c1cccc(F)c1)NCCCn1ccnc1 | -22.6 |
| Cn1cnnc1SCC(=O)NC1CCCC1 | 13 |
| Cc1cc(-c2n[nH]c(=S)n2Cc2ccccc2)cs1 | -0.571 |
| COC(=O)C(NC(=O)c1ccccc1)(Nc1nccs1)C(F)(F)F (stereo not drawn) | 7.77 |
| Cc1cc(SCC(=O)c2ccc(O)c(O)c2)n2nc(C)c(-c3ccccc3)c2n1 | 18.1 |
| Cc1cccc(-c2nc3c(c(SCC(=O)N4CCOCC4)n2)COC(C)(C)C3)c1 | -10.7 |
| O=C1CSC(c2ccc(Cl)cc2)N1C1CCCCC1 (stereo not drawn) | -14.4 |
| CN(C)S(=O)(=O)c1ccc(C(=O)N2CCCC2c2nc3ccccc3s2)cc1 (stereo not drawn) | 0.54 |
| Cc1ccc(CNC(=O)CCS(=O)(=O)Cc2ccc(C)cc2)cc1 | 13.1 |
| CCCCOc1ccc(-c2c(C(=O)Nc3ccccc3)c(C)[nH]c(=S)c2C#N)cc1 | 12.1 |
| CCOC(=O)c1cccc(NC(=O)CNS(=O)(=O)c2cccs2)c1 | -4.88 |
